Test results reported in article PMC4336329 (PLoS ONE, 2015).
Screen size: about 310,000 compounds; about 14,000 (4.5%) showed an effect of 50% or more. Effects have a minus sign here. The list shows a part of the results.

biological target: human ether-à-go-go-related gene (hERG) potassium channel (human, UniProt Q12809); experiment: primary screen, population patch clamp on CHO cells stably expressing hERG
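Further: peak tail current of the secondary pulse compared with the same well before compound.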

Sequence of human ether-à-go-go-related gene (hERG) potassium channel (Q12809 whole entry, looked up): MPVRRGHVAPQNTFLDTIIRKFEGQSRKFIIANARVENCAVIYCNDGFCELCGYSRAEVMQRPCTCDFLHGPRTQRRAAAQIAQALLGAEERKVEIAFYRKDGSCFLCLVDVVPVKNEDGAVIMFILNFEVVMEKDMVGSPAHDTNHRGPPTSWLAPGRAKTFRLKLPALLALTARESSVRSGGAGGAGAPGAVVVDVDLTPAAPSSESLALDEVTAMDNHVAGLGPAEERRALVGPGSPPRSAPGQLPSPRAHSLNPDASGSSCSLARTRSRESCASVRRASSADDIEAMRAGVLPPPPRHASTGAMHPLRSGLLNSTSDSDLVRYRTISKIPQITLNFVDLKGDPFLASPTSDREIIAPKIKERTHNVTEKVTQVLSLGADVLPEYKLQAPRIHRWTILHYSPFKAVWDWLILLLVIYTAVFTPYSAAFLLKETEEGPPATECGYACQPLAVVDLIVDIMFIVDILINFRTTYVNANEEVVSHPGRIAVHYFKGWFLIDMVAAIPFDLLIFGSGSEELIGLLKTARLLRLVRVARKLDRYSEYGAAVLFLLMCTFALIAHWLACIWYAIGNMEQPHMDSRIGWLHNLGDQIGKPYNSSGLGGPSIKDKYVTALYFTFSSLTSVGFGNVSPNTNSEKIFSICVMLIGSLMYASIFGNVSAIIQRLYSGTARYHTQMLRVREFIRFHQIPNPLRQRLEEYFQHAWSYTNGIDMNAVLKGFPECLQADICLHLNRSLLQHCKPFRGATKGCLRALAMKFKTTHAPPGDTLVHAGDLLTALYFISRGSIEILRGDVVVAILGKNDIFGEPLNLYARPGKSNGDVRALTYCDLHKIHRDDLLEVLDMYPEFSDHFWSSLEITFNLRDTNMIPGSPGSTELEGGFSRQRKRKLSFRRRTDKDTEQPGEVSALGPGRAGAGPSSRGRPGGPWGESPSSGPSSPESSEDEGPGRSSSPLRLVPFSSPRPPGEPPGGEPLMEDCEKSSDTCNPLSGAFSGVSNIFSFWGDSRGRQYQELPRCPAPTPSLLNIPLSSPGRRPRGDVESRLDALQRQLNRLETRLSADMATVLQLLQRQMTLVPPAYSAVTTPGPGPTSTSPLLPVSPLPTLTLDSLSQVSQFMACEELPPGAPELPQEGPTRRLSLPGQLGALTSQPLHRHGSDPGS

| SMILES | hERG current change (%, negative = inhibition) at 10uM |
| --- | --- |
| CCCC(=O)NCCc1nc2cc([N+](=O)[O-])ccc2n1C | -16.4% |
| CCc1cc2cc3c(cc2nc1SCC(=O)OC(C)C)OCO3 | -6.18% |
| NC(=O)c1cnn2c(C(F)(F)F)cc(-c3ccccc3)nc12 | -22.2% |
| O=C(c1ccc([N+](=O)[O-])cc1Cl)N1CCN(c2ccccn2)CC1 | -45% |
| O=C(N1CCOCC1)n1cnc2ccccc21 | 22.5% |
| CCOC(=O)Nc1ccc2c(c1)N(C(=O)CCN1CCN3CCCC3C1)c1ccccc1CC2.Cl.O (centres unmarked) | 10.7% |
| COc1cccc(NP(=O)(Oc2ccc(Cl)cc2)Oc2ccc(Cl)cc2)c1 | -9.06% |
| Cc1n[nH]c(C)c1CCCCOc1ccccc1F | 1.05% |
| CC(C)(C)OC(=O)NCCC(=O)N/N=C/c1cccc2nccnc12 | 8.03% |
| COc1ccc(C(=O)COC(=O)CN2CC(=O)Oc3ccccc32)cc1Br | 9.4% |
| O=C(CN1C(=O)c2ccccc2C1=O)Nc1cccc2cccnc12 | 6.19% |
| Cc1ccc(NC(=O)CN(C)S(=O)(=O)c2cccc3nsnc23)cc1 | -26.7% |
| CC(CCc1ccccc1)NC(=O)CN1CCOc2ccccc21 (centres unmarked) | -12.3% |
| COC(=O)CCN(C(=O)c1ccc([N+](=O)[O-])cc1)c1ccccn1 | 9.7% |
| CCOC(=O)N1CCN(c2ccc(C(=O)c3ccccc3)cc2F)CC1 | -50.8% |
| CCc1cc(Cn2nc(-c3ccccc3)cc2C(=O)NCc2cccc(C(F)(F)F)c2)on1 | 6.81% |
| CC(OC(=O)/C=C/c1cccs1)C(=O)Nc1ccc(S(N)(=O)=O)cc1 (centres unmarked) | 1.47% |
| Cc1nc2ccccn2c1C(=O)NN | 9.06% |
| CC(=O)N1CCc2c(sc(NC(=O)CCS(=O)(=O)c3ccc(C)cc3)c2C(N)=O)C1 | 2.54% |
| O=C1OC2(c3ccccc3)C3CCCC2C13 | 11.1% |
| COCc1cc(C)nc(SCC[N+](C)(C)CC(=O)c2ccc(Br)cc2)c1C#N.[Br-] | -1.5% |
| Br.Cn1c(=N)n(CC(=O)c2ccc(Br)cc2)c2ccccc21 | -41% |
| O=C1OC(c2ccccc2)=N/C1=C\N1CCCCC1 | -1.32% |

| SMILES | hERG current change (%, negative = inhibition) at 10uM |
| --- | --- |
| CNc1ccc(/C=C2\COc3ccccc3C2=O)cc1[N+](=O)[O-] | 11.1% |
| c1ccc(C(NCCNC(c2ccccc2)c2ccccc2)c2ccccc2)cc1 | 8.38% |
| CCn1c(SCC(=O)Nc2ccc(Cl)cc2)nnc1C1CC1 | -29.8% |
| Cc1ccc(C(=O)NCc2ccc3c(c2)OCO3)o1 | 14.5% |
| Cc1ccc(S(=O)(=O)N(C)CC(=O)Nc2cccc(C)n2)cc1 | 15.2% |
| COC(=O)c1ccccc1S(=O)(=O)N1CCCC(c2nc3c(nnn3Cc3ccc(C)cc3)c(=O)[nH]2)C1 (centres unmarked) | -20.5% |
| COc1cccc(-c2nc(CS(=O)(=O)CC(=O)Nc3cc(C)ccc3C)c(C)o2)c1 | 7.02% |
| COc1cc(C(=O)NCCCc2ccccc2)cc(OC)c1OC | 8.24% |
| O=C(Nc1ccc(C(F)(F)F)cc1[N+](=O)[O-])O[C@H]1[C@H](Cc2ccccc2)NS(=O)(=O)[C@H]2C[C@@H]3C=C[C@]12O3 | 9.28% |
| CSCC(=O)N1CCCC(CO)(CCCc2ccccc2)C1 (centres unmarked) | -4.78% |
| O=S(=O)(Nc1cccc2cn[nH]c12)c1ccc(F)cc1 | -5.83% |
| CCn1c(CNC(=O)c2ccccc2F)nnc1SCC(=O)NC1CCCCC1C (centres unmarked) | 31.8% |
| CC(=O)Oc1c(C)c(OC(C)=O)c2c(c1C(C)=O)OC1CC(=O)C(C(C)=O)=C(O)C21C (centres unmarked) | 5.99% |
| O=C(O/N=C(/c1ccccc1)c1ccncc1)c1ccccc1[N+](=O)[O-] | -14% |
| Cc1ccc2oc(C(=O)N3CCN(CC(=O)NC(C)C)CC3)c(C)c2c1 | -29.6% |
| N#Cc1c2c(c(=S)n(-c3ccccc3)c1N)CCCC2 | 5.08% |
| COc1ccc(C2=NO[C@@H]3C(=O)N(c4ccc5c(c4)OCCO5)C(=O)[C@H]23)cc1OC | -1.41% |
| O=C(CCNC(=O)c1ccc(Cl)cc1)Nc1cccc(S(=O)(=O)N2CCCCC2)c1 | -46% |
| CC1CC=C2C(C#N)=C(N)C(C#N)(C#N)C(c3cccs3)C2C1 (centres unmarked) | -3.93% |
| COCCOc1ccc(C(F)(F)F)cc1N | 26.3% |
| CS(=O)(=O)N1CCN(c2ccccc2NC(=O)c2ccc(Br)o2)CC1 | -36.3% |
| COC(=O)C1=C(C)N=C2SC(C#N)=C(N)N2C1c1ccc(OC)cc1 (centres unmarked) | -16.9% |
| Cc1occc1C(=O)N1CCN(C(c2ccccc2)c2ccccc2)CC1 | -16.8% |

| SMILES | hERG current change (%, negative = inhibition) at 10uM |
| --- | --- |
| N#CCSCC(=O)Nc1ccc(Cl)cc1 | 6.07% |
| O=C(N/N=C\c1cccnc1)c1ccc(Br)s1 | -6.65% |
| Cc1nnc(SCc2nc3sc4c(c3c(=O)[nH]2)CCCC4)[nH]c1=O | 13% |
| Cc1cc(C)c(C)c(OCC(=O)O/N=C(\N)c2ccccn2)c1 | -1.24% |
| C/C(=N\Nc1ccccc1C(=O)O)c1ccncc1 | 0.449% |
| C#CCSc1nnc(-c2ccc(O)cc2)o1 | 9.73% |
| CC(=O)c1cccc(NC(=O)c2cnn(-c3ccccc3)c2C)c1 | -10.5% |
| CCC(=O)/C(=C(/O)c1ccccc1)c1nc2ccccc2[nH]1 | 42.1% |
| O=C(/C(Br)=C/Nc1cc(Cl)ccc1Cl)C(F)(F)F | -35.3% |
| COc1ccc(NC2=NCCCS2)cc1OC | 10.3% |
| CC(C)n1c(=S)[nH]c2cc(Cl)ccc21 | 16.9% |
| OC(CSc1ccccc1Cl)CN1CCN(c2ccc(F)cc2)CC1 (centres unmarked) | -57.4% |
| Cc1ccc(C(=O)O)cc1S(=O)(=O)N1CCC(C(=O)O)CC1 | -4.77% |
| COc1cc(C(c2nnnn2C2CCCC2)N2CCc3ccccc3C2)ccc1O.Cl (centres unmarked) | -20.7% |
| O=C(NCc1ccncc1)c1cccc(S(=O)(=O)Nc2ccc(SC(F)F)cc2)c1 | -3.21% |
| COc1ccccc1CCNC(=O)C(=O)NCC1OCCN1S(=O)(=O)c1ccc(F)cc1 (centres unmarked) | -5.58% |
| COc1ccc2nc(NC(=S)N(C)C)sc2c1 | 21.2% |
| Cc1ccc2oc(=O)n(CCOc3ccccc3C)c2c1 | 9.56% |
| CCn1cc(C(=O)NCCCN2CCC(C)CC2)c(=O)c2cc(S(=O)(=O)N3CCCC3)ccc21 | -7.61% |
| Cc1ccc(CN2CCN(Cc3ccccn3)CC2CCO)cc1 (centres unmarked) | -47.9% |
| CCN1CCN(S(=O)(=O)c2ccc(Cl)c(C(=O)NC3CCCC3)c2)CC1 | 5.28% |
| COc1ccc(Cl)cc1C(=O)NNC(=O)c1csc(N2CCOCC2)n1 | 9.47% |
| O=C1/C(=C/c2ccco2)Cc2ccccc21 | -2.94% |

| SMILES | hERG current change (%, negative = inhibition) at 10uM |
| --- | --- |
| O=C(CCCn1cnc([N+](=O)[O-])n1)Nc1cccc(O)c1 | 9.95% |
| O=C(Nc1ccc2c(c1)OCCO2)C1CC1c1ccccc1 (centres unmarked) | 9.64% |
| CSCCC(NC(=O)C1CCC(C)CC1)C(=O)NCCN1CCC(C)CC1 (centres unmarked) | -19.9% |
| CC(C)(C)c1cnnn1-c1ccc(-c2csc(N)n2)cc1 | -3.16% |
| CC(C)c1ccc(CN2CC(C(=O)Nc3ccccc3)CC2=O)cc1 (centres unmarked) | -8.95% |
| CS(=O)(=O)O.CSc1ccc2c(c1)C(N1CCN(C)CC1)Cc1ccccc1S2 (centres unmarked) | -65.9% |
| CCCc1cc(C(=O)Nc2nnc(C)s2)cs1 | 4.22% |
| CCCCCCCCc1nnc(NC(=O)c2ccco2)s1 | 12.3% |
| COc1ccc(C(C)=O)cc1COC(=O)CSC(C)C(=O)Nc1cc(C)on1 (centres unmarked) | 0.0735% |
| Cc1ccc2nc(-c3ccc(NC(=O)CSc4nccc(=O)[nH]4)cc3)sc2c1 | 16.2% |
| O=C(N/C(=C\c1cccc(Br)c1)C(=O)N1CCOCC1)c1ccco1 | 2.03% |
| O=C(NCCc1nnc2ccc(NCc3ccc(Cl)cc3)nn12)c1ccccc1 | -14.8% |
| COCCCNC(=O)c1c[nH]c2ccc(S(=O)(=O)N(C)c3ccccc3C)cc2c1=O | -4.77% |
| CCC(=O)NC(=S)Nc1ccc(NC(=O)COc2ccc([N+](=O)[O-])cc2)cc1 | -2% |
| COC(=O)C1=C(C)N(C)C(=S)NC1c1cc(OC)ccc1OC (centres unmarked) | -0.711% |
| CCCN(CCC)C(=O)c1oc2ccccc2c1NC(=O)Cc1cccc(OC)c1 | 4.67% |
| Cc1ccc(C(O)c2ccc(-n3ccnc3)cc2)cc1 (centres unmarked) | -1.74% |
| COc1ccc(-c2csc(N(CC3CCCO3)C(=O)c3cccs3)n2)cc1 (centres unmarked) | -11.4% |
| CCc1ccc(NC(=O)c2ccc3c(=O)n4c(nc3c2)CCCCC4)cc1 | -46.8% |
| COc1ccc(/C=N/NC(=O)c2cc3c(OC)ccc(OC)c3[nH]2)cc1O | 19.1% |
